Assay results from PubChem BioAssay AID485294 (National Center for Advancing Translational Sciences (NCATS), 2010).
Screen size: about 370,000 compounds; about 150 (0.041%) were called active. Inconclusive means that the source gave no clear call. Such entries were picked first, then a sample of the others. Calls follow the shape of the dose curve; as a rule, active = well fitted inhibition curve with a large enough effect; inconclusive = small, poorly fitted or top-dose-only effect; inactive = flat fitted curve, though single readings scatter. Potencies of inconclusive entries are left out as doubtful fits.
Also: nearly all actives have a fitted effect of over 25% in size.
Potency is read from the fitted curve at half-maximal effect; tags tell the direction and shape of the fitted curve.

These molecules were tested against Beta-lactamase (Escherichia coli (strain K12)) (UniProt P00811) (assay: qHTS Inhibitors of AmpC Beta-Lactamase (assay with detergent)). Settings: AmpC hydrolysis of nitrocefin, absorbance 480 nm, 0.01% Triton; series mostly up to 114 µM.
UniProt P00811, sequence (P00811 whole entry, looked up): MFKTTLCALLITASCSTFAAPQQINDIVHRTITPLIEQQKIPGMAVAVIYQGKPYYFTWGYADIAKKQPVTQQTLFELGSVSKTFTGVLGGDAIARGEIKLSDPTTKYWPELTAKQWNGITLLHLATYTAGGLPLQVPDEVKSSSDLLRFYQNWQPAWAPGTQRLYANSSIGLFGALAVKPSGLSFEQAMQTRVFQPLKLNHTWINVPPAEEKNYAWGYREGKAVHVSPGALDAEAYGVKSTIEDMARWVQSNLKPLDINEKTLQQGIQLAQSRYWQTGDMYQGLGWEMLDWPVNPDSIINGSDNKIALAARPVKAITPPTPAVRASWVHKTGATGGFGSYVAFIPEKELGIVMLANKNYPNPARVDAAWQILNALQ
Method in brief: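 AmpC (5.3 nM in the dispensed reagent) in 20 mM phosphate pH 7.0 with 0.01% (detergent screen) or 0.0001% Triton X-100 was preincubated with compounds for 15 min at room temperature. Nitrocefin was then added from an 800 uM solution, and hydrolysis was followed at 480 nm.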
In the case of CCC(=C/c1sc2ccc3ccccc3c2[n+]1C)/C=C1\Sc2ccc3ccccc3c2N1C, the Potency is reported as inconclusive [inhibitor, partial curve]. With Cc1nc2ccc(NC(=O)C3CCN(S(=O)(=O)c4cccs4)CC3)cc2s1 the Potency was “inactive”. For CCOC(=O)c1nnc2c(Br)c(-c3ccccc3)nn2c1C, the Potency was inconclusive [inhibitor, partial curve, poor fit]. With Cc1ccc(CS(=O)(=O)CC(C)(O)c2ccccc2)cc1 (stereo unspecified) the Potency was “inactive”. In the case of CCn1cc(CCCC(=O)NCc2cccnc2)c2ccccc21, the Potency is reported as inconclusive [inhibitor, full curve, poor fit]. For Cc1cccc(C(=O)Nc2ccccc2C(=O)NCc2ccco2)c1, the Potency was “inactive”. In the case of CCOc1c(Br)cc(C(=O)OCC(=O)N2CCc3ccccc3C2)cc1OC, the Potency is reported as inconclusive [inhibitor, full curve, poor fit]. In the case of O=C(c1ccc2c(=O)n(CCc3ccccc3)c(=O)[nH]c2c1)N1CCN(c2ccc(Cl)cc2)CC1, the Potency is reported as “inactive”. Cc1ccc(NC(=O)CCOc2ccccc2C)cc1F was tested, and the Potency was “inactive”. For O=C(CSc1nnc(COc2ccccc2F)n1-c1ccccc1)NCc1ccco1, the Potency was “inactive”. In the case of COc1cc(NC(=O)c2ccc(-c3cccc([N+](=O)[O-])c3)o2)ccc1NC(=O)C(C)C, the Potency is reported as inconclusive [inhibitor, full curve, poor fit]. In the case of CCOC(=O)C1CSC(CC(=O)Nc2ccc(Cl)c(Cl)c2)C(=O)N1 (stereo unspecified), the Potency is reported as inconclusive [inhibitor, full curve, poor fit]. c1ccc(-n2ncc3c(NCCN4CCOCC4)ncnc32)cc1 was tested, and the Potency was inconclusive [inhibitor, full curve, poor fit]. In the case of COCCCNC(=O)CCc1c(C)nc2cc(-c3ccc(Cl)cc3)nn2c1C, the Potency is reported as “inactive”. In the case of CCOC(=O)C(C#N)c1ccccn1 (stereo unspecified), the Potency is reported as inconclusive [inhibitor, full curve, poor fit]. For O=C(O)C1OC(C(=O)O)C2C1C(F)(F)C2(F)F (stereo unspecified), the Potency was inconclusive [inhibitor, partial curve, poor fit]. For CC(C)NC(=O)c1cc2c(-c3ccc(Cl)cc3)nn(C)c2s1, the Potency was inconclusive [inhibitor, full curve, poor fit]. For O=C(Nc1ccc2nn(-c3ccccc3)nc2c1)c1ccc(-c2cccc(Cl)c2)o1, the Potency was “inactive”. With CCN1CCN(c2nc3ccccc3s2)CC1 the Potency was inconclusive [inhibitor, partial curve]. For CCOC(=O)/C(C)=C1\NC(C)(C)Cc2ccccc21, the Potency was active: 25.1 µM. In the case of CCOC(=O)NC(CC(=O)O)c1ccc(OCC)cc1 (stereo unspecified), the Potency is reported as inconclusive [inhibitor, full curve, poor fit]. CC(C)NC(=O)CN(Cc1ccc(F)cc1)C(=O)CCC(=O)Nc1nccs1 was tested, and the Potency was inconclusive [inhibitor, full curve, poor fit]. With CCOC(=O)C1=C(O)/C(=C/c2ccc(OCC(=O)O)c(OCC)c2)SC1=Nc1ccccc1 the Potency was “inactive”. In the case of Cc1ccc(CNC(=O)c2ccccc2NC(=O)CN2CCN(C)CC2)cc1, the Potency is reported as inconclusive [inhibitor, partial curve, poor fit]. For COc1ccc(C(=O)C(C)OC(=O)CCN2C(=O)C3CC=CCC3C2=O)cc1 (stereo unspecified), the Potency was “inactive”. With COc1cccc(-c2nc(CS(=O)CC(=O)NCCc3ccccc3)c(C)o2)c1 (stereo unspecified) the Potency was “inactive”. In the case of CC1(C)Cc2nc(NCCN3CCOCC3)c(C#N)cc2CO1, the Potency is reported as inconclusive [inhibitor, partial curve, poor fit]. In the case of Cc1ccc(CNc2ccc(S(=O)(=O)N3CCOCC3)cc2[N+](=O)[O-])cc1, the Potency is reported as inconclusive [inhibitor, full curve, poor fit]. For O=c1[nH]c2ccc(NC(=S)Nc3ccc(Cl)cc3Cl)cc2[nH]1, the Potency was “inactive”. With Cc1nnc(SCC(=O)N2c3ccccc3C(C)(c3ccc(Cl)cc3)CC2(C)C)s1 (stereo unspecified) the Potency was inconclusive [inhibitor, full curve, poor fit]. For COc1ccc(CCC(=O)Nc2cccc(S(=O)(=O)N(C)C)c2)cc1OC, the Potency was inconclusive [inhibitor, partial curve, poor fit]. With CCO[C@@H]1OC(C(=O)N2CCN(Cc3ccccc3)CC2)=C[C@H](c2ccc(C(F)(F)F)cc2)[C@H]1CCCO the Potency was “inactive”. COc1ccccc1N1CCN(C/C=C/c2ccc(N(C)C)cc2)CC1 was tested, and the Potency was inconclusive [inhibitor, partial curve, poor fit]. CCS(=O)(=O)N1CCc2cc(C(=O)Nc3cc(Cl)ccc3C)ccc21 was tested, and the Potency was “inactive”. NS(=O)(=O)c1ccc(CCNC(=O)CN2CCN(Cc3cccc4ccccc34)CC2)cc1 was tested, and the Potency was inconclusive [inhibitor, full curve, poor fit]. With COc1ccccc1NC(=O)CC1Nc2ccccc2NC1=O (stereo unspecified) the Potency was inconclusive [inhibitor, full curve]. For N#Cc1cccc(-n2c(-c3ccccc3)nnc2-c2ccccc2)c1C#N, the Potency was “inactive”. In the case of CCN(CCCNC(=O)c1cc2cc3ccc(OC)cc3nc2s1)c1ccccc1, the Potency is reported as “inactive”. In the case of Cc1cc(C)n(C(=O)c2cc3sccc3[nH]2)n1, the Potency is reported as “inactive”. In the case of N/C(=N\OC(=O)c1cccs1)c1cccnc1, the Potency is reported as “inactive”. With CNC(=O)c1c(NC(=O)c2cccc(C)c2)sc2c1CCC2 the Potency was “inactive”. In the case of O=C(NCCOC(=O)c1c(F)cccc1Cl)c1c(F)cccc1Cl, the Potency is reported as inconclusive [inhibitor, full curve, poor fit]. For Cc1cc(C)c(C)c(OCCOCCN2CCN(C)CC2)c1, the Potency was “inactive”. In the case of COCCCN(Cc1ccco1)C(=O)Cn1ncc2c([nH]c3ccccc32)c1=O, the Potency is reported as inconclusive [inhibitor, full curve, poor fit]. With COc1ccc(S(=O)(=O)N2Cc3ccccc3CC2C(=O)Nc2ccc(O)cc2)cc1OC (stereo unspecified) the Potency was inconclusive [inhibitor, partial curve]. For Oc1ccccc1C=NC1=NN(c2cccc(C(F)(F)F)c2)CC1, the Potency was inconclusive [inhibitor, full curve, poor fit].
